Assay results as given in the RNAGym collection of RNA variant scans (doi:10.1093/nar/gkz1192).
Read counts are not given, so values of variants with three or more changes are uncertain.

B1: CPEB3 Ribozyme (parent)
chain: UAACAGGGGGCCACAGCAGAAGCGUUCACGUCGCAGCCCCUGUCAGAUUCUGGUGAAUCUGCGAAUUCUGCUGUAUAUCUC

Variants of: B1
Assay: self-cleavage, relative activity (ratio to wild type); higher = more cleavage; in vitro, sequencing
How it was run: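 Libraries of CPEB3 self-cleaving ribozyme mutants came from rounds of error-prone PCR and carried barcodes, which DNA sequencing matched to variants. In vitro transcription used T7 RNA polymerase at 37°C for 5 hours, with a further 15 min in DNase I before EDTA stopped the reaction; the ribozymes cleaved during both steps. The RNA was reverse transcribed with template switching and sequenced on Illumina. Relative activity is the cleaved/total read fraction of a variant divided by that of the unmutated ribozyme, averaged over three batches with at least 5 reads.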
UAACAGGGGGCCUCAGCAGAAGCGUUCACGUCGCAGCCCCUGUCGGAUCCUGGUGAAUCUGCGAACCCUGCUAUAUAUCUC [A13U A45G U49C U66C U67C G73A] gave a self-cleavage of 0.07.
UAACAGGGGGCCUCAGCAGAAGCGUUCACGUCGCAGCCCCUGUCGGAUUCUGGCGAAUCUGCGAAUUCUGAUGUAUAUCUC [A13U A45G U54C C71A] gave a self-cleavage of 0.2.
Variant UAACAGGGGGCCUCAGCAGGAGCGUUCACGUCGCUGCCCCUGUCAGAUUCUGGUGAAUCCGCGAAUUCUGCCGUAUAUCUC [A13U A20G A35U U60C U72C] has a self-cleavage of 0.44.
In the case of UAACAGGGGGCCUCAGCAGAGGCGUUCACGUCGCAGCCCCUGCCAGAUUCUGGCGAAUCUGCGAAUUCUGCUGCAUAUCUC [A13U A21G U43C U54C U74C], the self-cleavage is reported as 0.04.
Work on UAACAGGGGGCCUCAGCAGAAGCGUUCACGUCGCAGCCCCUGUCGGAUUCUGGCGAAUCUGCGAAUUCUGCUGUAUAUCUC [A13U A45G U54C] yielded a self-cleavage of 0.99.
Variant UAACAGGGGGCCUCAGCAGGAGCGUUCACGUCGCAGCCCCUGACAGACUCUGGUGAAUCUGCGAAUUCUGCUGUAUAUCUC [A13U A20G U43A U48C] has a self-cleavage of 0.65.
UAACAGGGGGCCUCAGCAGAGGCGUCCACGUCGCAACCCCUGUCAGAUUCUGGUGAAUCUGCGAAUUCUGCUGUAUAUCCC [A13U A21G U26C G36A U80C] gave a self-cleavage of 0.05.
In the case of UAACAGGGGGCCUCAGCAGAGGCGUUCACGUCGCAGCCCCUGUCAUAUUCUGGUGAAUCGGCGAAUUCUGCUGCAUAUCUC [A13U A21G G46U U60G U74C], the self-cleavage is reported as 0.11.
In the case of UAACAGGGGGCCUCAGCAGAGGCGUUCACGUCGCUGCCCCUGCCAGACUCUGGUGAAUCUGCGGAUUCUGCUGUAUAUCUC [A13U A21G A35U U43C U48C A64G], the self-cleavage is reported as 0.05.
UAACAGGGGGCCUCAGCAGAUGCGUCCACGACGCAGCCCCUGUCGGAUUCUGAUGAAUCUGCGAAUUCUGCUGUAUAUCUC [A13U A21U U26C U31A A45G G53A] gave a self-cleavage of 0.06.
For UAACAGGGGGCCUCAGCAGAAGCGUUCACGUCGCAGCCCCUGUCGGAUCCUGGUGAAUCUGCGAAUUCUGCUGUAUAUCUC [A13U A45G U49C], the self-cleavage was 0.2.
UAACAGGGGGCCUCAGCAGUAGCGUCCUCGUCGCAGCCCCUGUCAGAUUCUGGUGUAUCUGCUAGUUCUGCUGUAUAUCUC [A13U A20U U26C A28U A56U G63U A65G] gave a self-cleavage of 0.09.
Work on UAACAGGGGGCCUCAGCAGAGGCGUUCACGUCGCAGCCCCUGUUAGAUUCUGGUGGAUCUGCGAAUUCGGCUGUAUAUCUC [A13U A21G C44U A56G U69G] yielded a self-cleavage of 0.11.
Work on UAACAGGGGGCCUCAGCAGAAGCGUUCACGUCGCGGCCCCUGUCAGGUUCAGGUGAAUCUGCGAAUUCUGCUGUAUAUCUC [A13U A35G A47G U51A] yielded a self-cleavage of 1.28.
UAACAGGGGGCCUCAGCAGAAGCGUUCUCGUCGCAGCCCCUGUCAGAUUCUGGUGAGUCUGCGAAUUCUGCUGUAUAUCUC [A13U A28U A57G] gave a self-cleavage of 0.93.
UAACAGGGGGCCUCAGCAGAUGCGUUCGCGUCGCAGCCCCUGUCAGAUACUGGUGAAUCUGUGAAUUCUGCCGCAUAUCUC [A13U A21U A28G U49A C62U U72C U74C] gave a self-cleavage of 0.06.
With UAACAGGGGGCCUCAGCAGAAGCGUUCACGUCGCGGCCCCUGUCAGAUUCUGGUGAAUCUGCGGAUUCUGCUGUAUACCUC [A13U A35G A64G U78C] the self-cleavage was 1.34.
UAACAGGGGGCCUCAGCAGAAGCGUUCGCGUCGCAGCCCCUGUCAGACUCUGGUGAAUCUGCGACUUCUGCUGUAUAUCUC [A13U A28G U48C A65C] showed a self-cleavage of 0.11.
UAACAGGGGGCCUCAGCAGAGGCGUUCACAUCGCAGCCCCUGUCAGAUUCUGGUGAAUCUGCGAAUUCUGCUGUUUAUCUC [A13U A21G G30A A75U] showed a self-cleavage of 0.16.
For UAACAGGGGGCCUCAGCAGAAGCGUUCACGUCGCGGCCCCUGUCAGAUUCUGGUGAAUCUGCGGAUUCUGCUGUACAUCUC [A13U A35G A64G U76C], the self-cleavage was 1.31.
With UAACAGGGGGCCUCAGCAGAAGCGUUCACGUCGCAGCCCCUGUCGGAAUCUCGUGAAUCUGCGAAUUCUGCUGUAUAUCUC [A13U A45G U48A G52C] the self-cleavage was 0.19.
UAACAGGGGGCCUCAGCAGAAGCGUUCGCGUCGCAGCCCCUGUCAGAUUCCGGUGAGUCUGCGAAUCCUGCUGUAUAUCUC [A13U A28G U51C A57G U67C] showed a self-cleavage of 0.13.
UAACAGGGGGCCUCAGCAGGAGCGCUCACGUCGCAGCCCCUGUCAGAUUCUGGUGAAUCUGCGAAUUCUGUUGCACAUCUC [A13U A20G U25C C71U U74C U76C] showed a self-cleavage of 0.13.
UAACAGGGGGCCUCAGCAGAAGCGUUCUCGUCGCAGCCCCUGUCAGAUUCUGGUGAAUCUGCGAAUUCUGCAGCAUAUCUC [A13U A28U U72A U74C] gave a self-cleavage of 0.21.
With UAACAGGGGGCCUCAGCAGAAGCGUUCGCGUCGCAGCCCCUGUCAGAUUCUGGUGAAACUGCGAAUUCUGCUGUAUACCUC [A13U A28G U58A U78C] the self-cleavage was 0.11.
For UAACAGGGGGCCUCAGCAGAUGCGUUCACGUCGCAGCCACUGUCAGAUUCUGGUGAAUCUGCGAAUUCUGCUGUAUAUCUC [A13U A21U C39A], the self-cleavage was 0.18.
UAACAGGGGGCCUCAGCAGGAGCGUUCACGUCGCAGCCCCUGUCAGGUUCCGGUGAAUCUGCGAAUUCUGCUGUAUAUCUC [A13U A20G A47G U51C] gave a self-cleavage of 0.14.
Variant UAACAGGGGGCCUCAGCAGAGGCGUUCACGACGCGGCCCCUGUCAGAUUCUGGUGAAUCUGCGAAUUCUGCUGUAUAUCUC [A13U A21G U31A A35G] has a self-cleavage of 0.99.
Work on UAACAGGGGGCCUCAGCAGAAGCGUUCUCGUCGCAGCCCCAGUCAUAUUCUGGUGAAACUGCGAAUUCUGCUGUAUAUCUC [A13U A28U U41A G46U U58A] yielded a self-cleavage of 0.13.
Variant UAACAGGGGGCCUCAGCAGAGGCGUUCACGUCGCAGCCCCUGUCAGAUUCUGGUGAAUCUGCGAAUUCUGCUGUAUAUCAC [A13U A21G U80A] has a self-cleavage of 0.15.
For UAACAGGGGGCCUCAGCAGAGGCGUUCACGUCGCAGCCCCUGUCCGAUUCUGGUGAGUCCGCGGAUUCUGCUGUAUAUCUC [A13U A21G A45C A57G U60C A64G], the self-cleavage was 0.07.
UAACAGGGGGCCUCAGCAGAGGCGUUCACGUCGCAGCCCCUGUCCGAUUCUGGUGAAUCUGCGAAUUCUGGUGUAUAUCUC [A13U A21G A45C C71G] gave a self-cleavage of 0.12.
UAACAGGGGGCCUCAGCAGAGGCGCUCACGUCGCAGCCCCUGCCAGAUUCUGGUGAAUCUGCGAAUUCUGCAGUAUAUCUC [A13U A21G U25C U43C U72A] gave a self-cleavage of 0.18.
With UAACAGGGGGCCUCAGCAGAGGCGUUCAUGUCGCAGCCCCUGUCAGAUACUGGUGAAUCUGCGAAUUCUGCUGUAUAUCUC [A13U A21G C29U U49A] the self-cleavage was 0.09.
